{"source": "PubChem BioAssay AID1461", "about": "(National Center for Advancing Translational Sciences (NCATS), 2008)", "note": "About 2,300 (1%) of roughly 220,000 compounds were called active. This list was built around the results that the source calls inconclusive (neither active nor inactive); the mix of calls is not that of the screen. Calls come from the whole dose curve; as a rule, active = well fitted inhibition curve with a large enough effect; inconclusive = small, poorly fitted or top-dose-only effect, or effect the other way; inactive = no such curve, though single readings can be large or run the other way. Potencies of inconclusive entries are left out as doubtful fits. % is set by controls: 0 for no effect and ±100 for the full control effect; potency is the fitted concentration of half-maximal effect; tags give direction and shape of the fitted curve.", "data": [{"target": "Neuropeptide S receptor (Homo sapiens) (UniProt Q6W5P4)", "sequence (Q6W5P4 whole entry, looked up)": "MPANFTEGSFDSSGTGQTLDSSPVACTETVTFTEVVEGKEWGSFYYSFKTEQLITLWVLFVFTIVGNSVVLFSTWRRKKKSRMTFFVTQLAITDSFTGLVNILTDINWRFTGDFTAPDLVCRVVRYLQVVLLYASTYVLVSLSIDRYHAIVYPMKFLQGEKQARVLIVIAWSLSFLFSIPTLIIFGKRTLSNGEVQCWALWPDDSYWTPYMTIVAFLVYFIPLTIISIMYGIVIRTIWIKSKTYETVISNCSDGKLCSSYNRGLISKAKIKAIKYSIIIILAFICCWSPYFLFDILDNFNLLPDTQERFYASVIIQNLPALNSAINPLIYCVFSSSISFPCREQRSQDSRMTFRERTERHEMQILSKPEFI", "assay": "qHTS Assay for Antagonists of the Neuropeptide S Receptor: cAMP Signal Transduction; note: nearly all actives have a fitted effect of over 50% in size", "settings": "CHO-NPSR cells, cAMP TR-FRET, antagonist mode; activity change, negative = inhibition: at 38.3 µM (top of the series) unless noted", "values": [{"smiles": "COc1cc(/C=C/C(=O)Nc2cc(C(F)(F)F)ccc2Cl)cc(OC)c1OC", "Potency": "inconclusive [inhibitor, single point]"}, {"smiles": "N#CC1=C(SCC(N)=O)NC2=C(C(=O)c3ccccc32)C1c1ccc(Cl)cc1", "note": "(stereo unspecified)", "Potency": "inconclusive [inhibitor, single point]"}, {"smiles": "C=C(C)COc1ccc(-c2n[nH]c(C)c2-c2ccc(Br)cc2)c(O)c1", "Potency": "inconclusive [inhibitor, single point]"}, {"smiles": "CC(C)(C)N(Cc1ccccc1)C(=O)COC(=O)CCc1c[nH]c2ccccc12", "Potency": "inconclusive [inhibitor, single point]"}, {"smiles": "COc1ccc(-c2cc(-c3ccc(OC)cc3)c(C#N)c(SC)n2)cc1", "Potency": "active: 12.6 µM"}, {"smiles": "CCCn1c(C)cc(C(=O)COC(=O)c2cc(S(=O)(=O)NCC(C)C)c(Cl)cc2Cl)c1C", "Potency": "inconclusive [inhibitor, partial curve]"}, {"smiles": "CCOC(=O)c1c(NC(C)=O)sc2c1CCC(C=O)=C2Sc1ccccc1", "Potency": "inconclusive [inhibitor, single point]"}, {"smiles": "Cc1c(Cl)c([N+](=O)[O-])nn1Cc1ccc(C(=O)N/N=C\\c2cccc(Br)c2)o1", "Potency": "inconclusive [inhibitor, partial curve]"}, {"smiles": "Cc1cc(C)c2cc(CN(Cc3cccnc3)C(=O)c3ccc(F)cc3)c(Cl)nc2c1", "Potency": "inconclusive [inhibitor, partial curve]"}, {"smiles": "COc1ccccc1N1CCN(C(c2ccccc2Cl)c2nnnn2C(C)(C)C)CC1", "note": "(stereo unspecified)", "Potency": "inconclusive [inhibitor, single point]"}, {"smiles": "NNc1nnc(-c2ccccc2)c(-c2ccccc2)n1", "activity change, negative = inhibition": "inactive: -16.7% [at 46.1 µM]"}, {"smiles": "COc1ccc(-n2nnnc2SCC(=O)c2ccc(O)c(O)c2)cc1", "activity change, negative = inhibition": "inactive: -29.2% [at 46.1 µM]"}, {"smiles": "CCCCOC(=O)c1c(C)oc2ccc(NS(=O)(=O)c3ccc4c5c(cccc35)C(=O)N4)cc12", "Potency": "inconclusive [inhibitor, single point]"}, {"smiles": "O=C(CSc1ncc(-c2ccc(F)cc2)n1Cc1ccco1)Nc1ccc2c(c1)OCO2", "Potency": "inconclusive [inhibitor, single point]"}, {"smiles": "COc1ccc(OC)c(-n2c(-c3ccc(S(C)(=O)=O)cc3)cc(C=O)c2C)c1", "Potency": "inconclusive [inhibitor, partial curve]"}, {"smiles": "CSc1nc(SCC(=O)NCc2ccco2)c2c3c(sc2n1)COC(C)(C)C3", "Potency": "inconclusive [activator, single point]"}, {"smiles": "COc1cc2c(O)c3c(c(-c4ccc5c(c4)OCO5)c2cc1OC)C(=O)OC3", "Potency": "inconclusive [inhibitor, partial curve]"}, {"smiles": "CCCn1nc([N+](=O)[O-])c(C(C#N)c2nc3ccccc3o2)c(Cl)c1=O", "note": "(stereo unspecified)", "Potency": "inconclusive [inhibitor, single point]"}, {"smiles": "Cc1nc(N2CCN(S(=O)(=O)c3cccc4nonc34)CC2)c2c3c(sc2n1)CCCC3", "Potency": "inconclusive [inhibitor, partial curve]"}, {"smiles": "CCCCC(=O)NC(=S)Nc1cccc(Cl)c1N1CCCCC1", "Potency": "inconclusive [inhibitor, single point]"}, {"smiles": "Cc1cc(/C=N/NC(=O)Cn2c3ccccc3c(=O)c3ccccc32)c(C)n1-c1ccccc1", "Potency": "inconclusive [inhibitor, partial curve]"}, {"smiles": "O=C(CN1C(=O)NC2(CCCC2)C1=O)OCc1cc(=O)n2cc(Br)ccc2n1", "Potency": "inconclusive [activator, single point]"}, {"smiles": "Cc1nc2ccccc2n1CCc1nc2c3ccccc3nc(SCC(=O)NCc3ccco3)n2n1", "Potency": "inconclusive [inhibitor, single point]"}, {"smiles": "Cc1ccc(N2C(=S)N=C(Nc3ccccc3C)C23CCOC(C)(C)C3)cc1", "note": "(stereo unspecified)", "Potency": "inconclusive [inhibitor, partial curve]"}, {"smiles": "Oc1ccc(Nc2nc(-c3ccc4ccccc4c3)cs2)cc1", "Potency": "inconclusive [inhibitor, single point]"}, {"smiles": "COC(=O)C1=CN(C(C)C)C=C(C(=O)OC)C1c1cc(Br)c(OC)c(OC)c1", "Potency": "inconclusive [inhibitor, single point]"}, {"smiles": "O=C1CCCN1CCCNCC(=O)N1c2ccccc2Sc2ccccc21", "activity change, negative = inhibition": "inactive: 1.24% [at 46.1 µM]"}, {"smiles": "COc1ccc(C(=S)N2CCN(C)CC2)cc1", "Potency": "inconclusive [inhibitor, single point]"}, {"smiles": "Cc1cc(NCCC(C)C)n2nc(C)c(-c3ccccc3)c2n1", "Potency": "inconclusive [inhibitor, single point]"}, {"smiles": "Cc1[nH]c2ccccc2c1/C=C/c1cc[n+](C)cc1", "Potency": "active: 10 µM"}, {"smiles": "CCCCN1CNC(=S)N(Cc2ccccc2)C1", "activity change, negative = inhibition": "inactive: -2.19% [at 46.1 µM]"}, {"smiles": "COc1ccccc1-n1cnc2cc(C(=O)NC3CCCC3)ccc21", "Potency": "inconclusive [inhibitor, single point]"}, {"smiles": "Cc1ccc(C(=O)Nc2nc3ccc(S(C)(=O)=O)cc3s2)s1", "Potency": "inconclusive [inhibitor, single point]"}, {"smiles": "Cc1cc(C(=O)CN(Cc2ccc(F)cc2)S(=O)(=O)c2ccc3c(c2)OCCO3)c(C)n1C", "Potency": "inconclusive [inhibitor, single point]"}, {"smiles": "C/C(=N/NC(N)=S)c1ccc(Br)s1", "Potency": "inconclusive [activator, full curve]"}, {"smiles": "CCOC(=O)C1CCCN(C(=O)c2cc(-c3ccc(C)cc3)nc3ccccc23)C1", "note": "(stereo unspecified)", "Potency": "inconclusive [inhibitor, single point]"}, {"smiles": "Cc1cc2nc(C3CCCN(C(=S)Nc4ccccc4C)C3)[nH]c2cc1C", "note": "(stereo unspecified)", "activity change, negative = inhibition": "inactive: -10.3% [at 46.1 µM]"}, {"smiles": "O=C1c2ccccc2C(=O)N1CCc1nc(-c2ccccn2)no1", "activity change, negative = inhibition": "inactive: -0.332% [at 46.1 µM]"}, {"smiles": "CSc1ccccc1NC(=O)c1ccncc1", "Potency": "inconclusive [inhibitor, single point]"}, {"smiles": "CC(O)CNc1nc2ccccc2n1-c1ncnc2sc3c(c12)CCC3", "note": "(stereo unspecified)", "Potency": "inconclusive [inhibitor, single point]"}, {"smiles": "COc1ccccc1Sc1nc(-c2ccccc2)ncc1OC", "activity change, negative = inhibition": "inactive: -39.6%"}, {"smiles": "Cc1cccc(NC(=S)N=Nc2c(O)[nH]c3ccccc23)c1", "activity change, negative = inhibition": "inactive: -33.5%"}, {"smiles": "O=C(Nc1sc(-c2ccccc2)cc1C(=O)O)c1ccccc1", "Potency": "inconclusive [activator, partial curve]"}, {"smiles": "O=C(CSc1nnc2c3ccccc3c3ccccc3c2n1)Nc1ccccc1F", "Potency": "inconclusive [inhibitor, single point]"}, {"smiles": "Cc1nc2c(C#N)c(C)[nH]n2c(=O)c1Cc1ccccc1", "activity change, negative = inhibition": "inactive: -16.9% [at 46.1 µM]"}, {"smiles": "CC(=O)C1=C(C)NC(SCC(=O)c2cc(Cl)ccc2Cl)=C(C#N)C1c1ccco1", "note": "(stereo unspecified)", "Potency": "active: 10 µM"}, {"smiles": "CC(=O)Nc1ccc(S(=O)(=O)N(C)CC(=O)OCC(=O)N2CCc3ccccc32)cc1", "Potency": "inconclusive [inhibitor, single point]"}, {"smiles": "Cc1cc(-c2csc(NC(=O)c3ccccc3C(F)(F)F)n2)c(C)n1Cc1ccccc1", "Potency": "inconclusive [inhibitor, single point]"}, {"smiles": "O=C(Nc1ccccc1)N1CCN(C2c3ccccc3-c3ccccc32)CC1", "Potency": "inconclusive [activator, single point]"}, {"smiles": "CSc1nc2c(c(=O)[nH]1)C(c1ccc(Cl)cc1)CC(=O)N2", "note": "(stereo unspecified)", "activity change, negative = inhibition": "inactive: -0.144%"}, {"smiles": "Cc1ccc(-c2n[nH]c(=S)n2/N=C/C=C/c2ccccc2[N+](=O)[O-])cc1", "Potency": "inconclusive [inhibitor, single point]"}, {"smiles": "CCN(CC)CC(=O)NN=C(c1ccccc1)c1ccccc1", "Potency": "inconclusive [inhibitor, partial curve]"}, {"smiles": "O=C(NC(=S)Nc1cccc2[nH]ncc12)c1ccccc1", "Potency": "inconclusive [inhibitor, single point]"}, {"smiles": "COC(=O)c1c(NC(=O)C2CC=CCC2C(=O)O)sc(C(N)=O)c1C", "note": "(stereo unspecified)", "Potency": "inconclusive [inhibitor, single point]"}, {"smiles": "O=Nc1c(-c2c(O)[nH]c3cc(Br)ccc23)[nH]c2ccccc12", "Potency": "inconclusive [inhibitor, partial curve]"}, {"smiles": "CCC(=O)Nc1ccccc1C(=O)OCC(=O)c1cccc2ccccc12", "Potency": "inconclusive [inhibitor, single point]"}, {"smiles": "COc1cccc(NC(=O)c2oc3ccccc3c2NC(=O)C(C)(C)C)c1", "Potency": "inconclusive [inhibitor, single point]"}, {"smiles": "O=C(c1ccc(N2CCCCC2)c([N+](=O)[O-])c1)N(Cc1ccccc1)c1ccccn1", "Potency": "inconclusive [inhibitor, partial curve]"}, {"smiles": "Cc1ccc(SCc2nc3ccccc3n2CC(=O)Nc2ccc(Cl)cc2)cc1", "Potency": "inconclusive [inhibitor, partial curve]"}, {"smiles": "COc1cccc2c(=O)cc(C)n(CC(=O)Nc3ccccc3C)c12", "activity change, negative = inhibition": "inactive: 4.42% [at 46.1 µM]"}, {"smiles": "CC(C)C(=O)Nc1ccc(N2CCCC2)cc1", "Potency": "inconclusive [inhibitor, single point]"}, {"smiles": "OC12CCCCC1C(c1ccc3c(c1)OCO3)N(Cc1ccccc1F)CC2", "note": "(stereo unspecified)", "Potency": "inconclusive [inhibitor, single point]"}, {"smiles": "O=C(Nc1cc(Cl)cc(Cl)c1)c1cccc(OC(F)F)c1", "Potency": "inconclusive [inhibitor, single point]"}, {"smiles": "CCCCOCCCNC(=O)Cc1ccccc1OC", "Potency": "inconclusive [inhibitor, partial curve]"}, {"smiles": "O=C1C=C(N(CCO)Cc2ccccc2)c2ccccc2C1=O", "Potency": "inconclusive [inhibitor, single point]"}, {"smiles": "N#Cc1c(N)nc(SCC(=O)C23CC4CC(CC(C4)C2)C3)c(C#N)c1-c1ccc(Cl)cc1", "Potency": "active: 3.16 µM"}]}]}
